The text below walks through data of the supplement of paper PMC12230231.

± gives the standard deviation of the averaged measurements. Restriction of a single-cycle SIVsab GFP reporter by TRIM5α v1-loop variants in CRFK cells. Human variants: read share among cells still uninfected after two challenges over input, higher = gained restriction. Rhesus variants: share among infected cells over input, higher = lost restriction. Reporter dose not given per row. No active / inactive call per row; the paper calls a change when both replicates lie above its controls (mean + 2 SD of stop or wild-type variants, or the top frameshift score). Residues outside the varied loop are taken from Swiss-Prot. The paper reads the human single-substitution scores as noise; they and the rhesus combinations repeat poorly (rank correlation 0.3 to 0.4), indel scores repeat only for the top variants, rhesus substitutions well (0.9).

The series relates to SIVsab (simian immunodeficiency virus of sabaeus monkeys), single-cycle GFP reporter, in CRFK cells. Description: enrichment among uninfected cells over input (fold); higher = stronger restriction. The note with it: library: insertions and deletions. As to the method:
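Pools of CRFK cells expressing variants of the TRIM5α v1 loop were challenged with the single-cycle reporter, sorted by GFP and sequenced; mean of two replicates.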
“MASGILVNVKEEVTCPICLELLTQPLSLDCGHSFCQACLTANHKKSMLDKGESSCPVCRISYQPENIRPNRHVANIVEKLREVKLSPEGQKVDHCARHGEKLLLFCQEDGKVICWLCERSQEHRGHHTFLTEEVAREYQVKLQAALEMLRQKQQEAEELEADIREEKASWKTQIQYDKTNVLADFEQLRDILDWEESNELQNLEKEEEDILKSLTNSETEMVQQTQSLRELISDLEHRLQGSVMELLQGVDGVIKRTENVTLKKPETFPKNQRRVFRAPDLKGMLEVFRELTDVRRYWVDVTVAPNNISCAVISEDKRQVSSPKPQIIYGARGTRYQTFVNFNYSQSITSGKHYWEVDVSKKTAWILGVCAGFQPDAMCNIEKNENYQPKYGYWVIGLEEGVKCSAFQDSSFHTPSVPFIVPLSVIICPDRVGVFLDYEACTVSFFNITNHGFLIYKFSHCSFSQPVFPYLNPRKCGVPMTLCSPSS [human TRIM5α, 6-codon deletion at 345]” displayed an enrichment of 1.17 ± 0.94.

“MASGILVNVKEEVTCPICLELLTQPLSLDCGHSFCQACLTANHKKSMLDKGESSCPVCRISYQPENIRPNRHVANIVEKLREVKLSPEGQKVDHCARHGEKLLLFCQEDGKVICWLCERSQEHRGHHTFLTEEVAREYQVKLQAALEMLRQKQQEAEELEADIREEKASWKTQIQYDKTNVLADFEQLRDILDWEESNELQNLEKEEEDILKSLTNSETEMVQQTQSLRELISDLEHRLQGSVMELLQGVDGVIKRTENVTLKKPETFPKNQRRVFRAPDLKGMLEVFRELTDVRRYWVDVTVAPNNISCAVISEDKRQVSSPKPQIIYGARGTRYQTFVNFNYTFVNFNYCTGILGSQSITSGKHYWEVDVSKKTAWILGVCAGFQPDAMCNIEKNENYQPKYGYWVIGLEEGVKCSAFQDSSFHTPSVPFIVPLSVIICPDRVGVFLDYEACTVSFFNITNHGFLIYKFSHCSFSQPVFPYLNPRKCGVPMTLCSPSS [human TRIM5α, 7-codon duplication at 338]” came in with an enrichment of 0.387 ± 0.15.

In turn, “MASGILVNVKEEVTCPICLELLTQPLSLDCGHSFCQACLTANHKKSMLDKGESSCPVCRISYQPENIRPNRHVANIVEKLREVKLSPEGQKVDHCARHGEKLLLFCQEDGKVICWLCERSQEHRGHHTFLTEEVAREYQVKLQAALEMLRQKQQEAEELEADIREEKASWKTQIQYDKTNVLADFEQLRDILDWEESNELQNLEKEEEDILKSLTNSETEMVQQTQSLRELISDLEHRLQGSVMELLQGVDGVIKRTENVTLKKPETFPKNQRRVFRAPDLKGMLEVFRELTDVRRYWVDVTVAPNNISCAVISEDKRQVSSPKPQIIYGARGTRYQTFVNFNYTGILGSQSITSGKHYWEVDVSKKTAWILGVCAGFQPDAMCNIEKNENYQPKYGYWVIGLEEGVKCSAFQDSSFHTPSVPFIVPLSVIICPDRVGVFLDYEACTVSFFNITNHGFLIYKFSHCSFSQPVFPYLNPRKCGVPMTLCSPSS [human TRIM5α, 1-codon deletion at 345]” showed an enrichment of 0.661 ± 0.073.

In turn, “MASGILVNVKEEVTCPICLELLTQPLSLDCGHSFCQACLTANHKKSMLDKGESSCPVCRISYQPENIRPNRHVANIVEKLREVKLSPEGQKVDHCARHGEKLLLFCQEDGKVICWLCERSQEHRGHHTFLTEEVAREYQVKLQAALEMLRQKQQEAEELEADIREEKASWKTQIQYDKTNVLADFEQLRDILDWEESNELQNLEKEEEDILKSLTNSETEMVQQTQSLRELISDLEHRLQGSVMELLQGVDGVIKRTENVTLKKPETFPKNQRRVFRAPDLKGMLEVFRELTDVRRYWVDVTVAPNNISCAVISEDKRQVSSPKPQIIYGARGTRYQTFVNFNYVNFNYCTGILGSQSITSGKHYWEVDVSKKTAWILGVCAGFQPDAMCNIEKNENYQPKYGYWVIGLEEGVKCSAFQDSSFHTPSVPFIVPLSVIICPDRVGVFLDYEACTVSFFNITNHGFLIYKFSHCSFSQPVFPYLNPRKCGVPMTLCSPSS [human TRIM5α, 5-codon duplication at 340]” yielded an enrichment of 0.61 ± 0.52.
